Experimental findings from PubChem BioAssay AID1745853 (National Center for Advancing Translational Sciences (NCATS), 2022) are described below.

Assay in all cases: Primary Screen for Target Class Profiling of Small Molecule Inhibitors of Methyltransferases
Experiment [1] deals with Glycine N-methyltransferase (Homo sapiens) (UniProt Q14749). The conditions noted are these: purified enzyme, MTase-Glo SAH luminescence; measured here: GNMT inhibition; at 40 µM; stronger effect = lower value. An outline of the steps: (§1)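 Each enzyme was assayed with SAM and its substrate. SAH formation detected by MTase-Glo luminescence; single-point 40 uM screen[…].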

Experiment [2] addresses Guanidinoacetate N-methyltransferase (Homo sapiens) (UniProt Q14353). The conditions noted are these: purified enzyme, MTase-Glo SAH luminescence; measured here: GAMT inhibition; at 40 µM; stronger effect = lower value. An outline of the steps:
as §1

Experiment [3] deals with Histamine N-methyltransferase (Homo sapiens) (UniProt P50135). The conditions noted are these: purified enzyme, MTase-Glo SAH luminescence; measured here: HNMT inhibition; at 40 µM; stronger effect = lower value. The essentials: as §1
For experiment [4], the target named is Nicotinamide N-methyltransferase (Homo sapiens) (UniProt P40261). The conditions noted are these: purified enzyme, MTase-Glo SAH luminescence; measured here: NNMT inhibition; at 40 µM; stronger effect = lower value. An outline of the steps:
as §1

The target of experiment [5] is Phenylethanolamine N-methyltransferase (Homo sapiens) (UniProt P11086). The conditions noted are these: purified enzyme, MTase-Glo SAH luminescence; measured here: PNMT inhibition; at 40 µM; stronger effect = lower value. The essentials: as §1

Several values for one entry are separate records, joined by “and”; a condition that tells them apart may be missing. Equal values may be shown once. This is one part of the list. Shown are side measurements of this screen, not its main read-out; they come without a call.
On the % scale 0 is the no-effect control and ±100 the full control effect.

Turning to `c1ccc(N2CCN(CCc3nn[nH]n3)CC2)cc1`, the activity change, negative = inhibition in experiment [1] was -2.29%; in experiment [2], -2.82%; in experiment [3] it was -4.53%; in experiment [4], -12.5%; in experiment [5], -9.26%.
Turning to `Cc1ccc(Cc2nn3c(SCC(=O)Nc4ccc(C)cc4C)nnc3[nH]c2=O)cc1`, the activity change, negative = inhibition in experiment [1] is -4.92%; in experiment [2], 1.8%; in experiment [3], -7.49%; in experiment [4], -8.96%; in experiment [5], -9.65%.
The matching figures for `N[C@@H](Cc1ccc(F)cc1)C(=O)O`: -4.68%, 4.66%, 0.976%, -4.74% and 6.64%.
Take `CC(C)=C1CC2[C@](C)(CC[C@@H](OC(=O)C3(C)OC3C)[C@@]2(C)O)CC1=O` (stereo not given in full): the activity change, negative = inhibition in experiment [1] is 0.207%; in experiment [2], 6.69%; in experiment [3] it was 11.5%; in experiment [4], -4.23%; in experiment [5], 5.38%.
As to `Cc1ccccc1Cn1nc2n(C(C)C)c(=O)c3ccc(C(=O)NCC(C)C)cc3n2c1=O`, the activity change, negative = inhibition in experiment [1] was 1.03%; in experiment [2], 3.73%; in experiment [3] it was 0.786%; in experiment [4] it was 1.43%; in experiment [5] it was 0.973%.
Turning to `C=C1CC[C@H]2[C@@](C)(CCC(O)[C@@]2(C)CO)[C@@H]1CCC1=CCOC1=O` (stereo not given in full), the activity change, negative = inhibition in experiment [1] is -3.12%; in experiment [2], -5.7%; in experiment [3] it was 1.61%; in experiment [4] it was -16.9%; in experiment [5], -4.24%.
Consider `CC1(C(=O)NCc2ccccc2)Cn2nc(-c3ccccc3)cc2C(=O)N1c1ccc2c(c1)OCCO2` (stereo not given), for which the activity change, negative = inhibition was -2.05% in experiment [1]; 5.12% in experiment [2]; -1.5% in experiment [3]; -1% in experiment [4]; -3.57% in experiment [5].
Turning to `COc1ccccc1N1C(=O)c2cc3ccccc3n2CC1(C)C(=O)NC1CCCCCC1` (stereo not given), the activity change, negative = inhibition was 1.92% in experiment [1]; 3.99% in experiment [2]; 2.9% in experiment [3]; -10% in experiment [4]; -4.87% in experiment [5].
For the molecule `COc1ccc(Cl)cc1NC(=O)CSc1nnc2n(CC(C)C)c(=O)c3cc(F)ccc3n12`, the activity change, negative = inhibition in experiment [1] is -1.4%; in experiment [2], 4.35%; in experiment [3] it was 4.88%; in experiment [4] it was -2.45%; in experiment [5], -1.67%.
On to `CC(C)OCCCN1C(=O)c2ccc(-c3ccco3)n2CC1(C)C(=O)NC1CCCCCC1` (stereo not given), for which the activity change, negative = inhibition is -0.817% in experiment [1]; 0% in experiment [2]; 5.69% in experiment [3]; 0.162% in experiment [4]; -0.95% in experiment [5].
On to `O=C(c1ccccc1F)N1CCC(N2Cc3ccccc3C2=O)CC1`, for which the activity change, negative = inhibition is -3.48% in experiment [1]; -6.7% in experiment [2]; -1.23% in experiment [3]; -11.4% in experiment [4]; -3.57% in experiment [5].
Regarding `COC(=O)[C@H](NC(=O)[C@@H]1C[C@H](NC(=O)Nc2ccc(OC)cc2)CN1C(=O)C=C(C)C)C(C)C`, the activity change, negative = inhibition in experiment [1] was -4.64%; in experiment [2] it was -0.272%; in experiment [3], -1.61%; in experiment [4] it was -5.5%; in experiment [5], -2.94%.
`C=CCn1c(=O)c2ccc(C(=O)NC(C)C)cc2n2c(=O)n(CC(=O)NC(C)CC)nc12` (stereo not given): the activity change, negative = inhibition turned out to be 5.08% in experiment [1]; 0.349% in experiment [2]; 6.52% in experiment [3]; 2.57% in experiment [4]; 3.99% in experiment [5].
The matching figures for `CC1(C(=O)NC2CCCCCC2)Cn2c(cc3occc32)C(=O)N1Cc1cccc(Cl)c1` (stereo not given): -11.1%, 2.07%, -3.02%, -11.5% and -2.13%.
As to `COCCNC(=O)CCc1nnc2n(Cc3ccc(Cl)cc3)c(=O)c3ccccc3n12`, the activity change, negative = inhibition in experiment [1] came out at 1.36%; in experiment [2] it was 4.81%; in experiment [3] it was 6.89%; in experiment [4], 7.01%; in experiment [5], 2.94%.
For `Cc1ccc(NC(=O)c2cc3n(n2)CC(C)(C(=O)NC2CCCCC2)N(C)C3=O)c(C)c1` (stereo not given), the activity change, negative = inhibition is 6.93% in experiment [1]; 0% in experiment [2]; 8.52% in experiment [3]; 7.31% in experiment [4]; 4.1% in experiment [5].
The matching figures for `CCOc1ccc(CNC(=O)c2cc3n(n2)CC(C)(C(=O)NCc2ccc(C)cc2)N(C)C3=O)cc1` (stereo not given): 4.89%, 0%, 6.14%, 4.3% and 5.14%.
The matching figures for `O=C1CCCCC(Cc2ccccc2)(C(=O)NCc2ccc(F)cc2)N1` (stereo not given): 0.075%, 3.25%, 2.72%, -4.37% and -0.501%.
Take `CSc1ccc(CN2C(=O)c3cc(-c4ccccc4)nn3CC2(C)C(=O)NCc2ccccc2)cc1` (stereo not given): the activity change, negative = inhibition is 1.53% in experiment [1]; 2.31% in experiment [2]; 2.07% in experiment [3]; -6.25% in experiment [4]; -3.67% in experiment [5].
As to `CC(C)NCCCn1c(Sc2cc3c(cc2I)OCO3)nc2c(N)ncnc21`, the activity change, negative = inhibition in experiment [1] was -7.87%; in experiment [2] it was -5.81%; in experiment [3] it was -31.8%; in experiment [4] it was -37.8%; in experiment [5] it was -36.9%.
As for `COC(=O)C1C(CC(C)=O)C=CC(O)C12Oc1cc(C)cc(O)c1C2=O` (stereo not given), the activity change, negative = inhibition was 1.45% in experiment [1]; 2.28% in experiment [2]; 1.23% in experiment [3]; -15.4% in experiment [4]; -0.738% in experiment [5].
The matching figures for `C[C@@H]1CC[C@]2(C(=O)O)CC[C@]3(C)C(=CCC4[C@@]5(C)C[C@@H](O)[C@H](O)[C@@](C)(CO)C5CC[C@]43C)C2[C@H]1C` (stereo not given in full): 4.75%, 9.27%, 6.07%, -6.14% and 8.03%.
For the molecule `CCC(C)/C=C(C)/C=C/c1cc2c(cn1)C(=O)C(C)(OC(C)=O)C(O)=C2Cl` (stereo not given), the activity change, negative = inhibition is 0% in experiment [1]; -3% in experiment [2]; -1.11% in experiment [3]; -20.3% in experiment [4]; -20.7% in experiment [5].
The matching figures for `O=C(c1cc(-c2ccc(F)cc2)n[nH]1)N1CC2CC(C1)[C@H]1CCCC(=O)N1C2` (stereo not given in full): -3.52%, 3.44%, 0.508%, -2.87% and 17.5%.
As to `Cc1ccc(-c2nnn3c2nc(NCC2CCCO2)c2ccccc23)cc1` (stereo not given), the activity change, negative = inhibition in experiment [1] is -5.22%; in experiment [2] it was 3.26%; in experiment [3] it was -2.22%; in experiment [4], 4.26%; in experiment [5], -5.55%.
Turning to `Cc1ccc(C)c(C(=O)CSc2nnc3n(C)c(=O)c4ccc(C(=O)NC5CCCC5)cc4n23)c1`, the activity change, negative = inhibition is -5.07% in experiment [1]; -5.25% in experiment [2]; -3.13% in experiment [3]; -6.05% in experiment [4]; -5.71% in experiment [5].
On to `O=C1N(CC2CC2)CCCC12CCN(S(=O)(=O)N1CCOCC1)C2` (stereo not given), for which the activity change, negative = inhibition in experiment [1] is 3.62%; in experiment [2], -4.26%; in experiment [3], -0.858%; in experiment [4], -6.09%; in experiment [5], -2.46%.
`CN(C)CCC(c1ccccc1)c1ccccn1` (stereo not given): the activity change, negative = inhibition in experiment [1] is 5.92% and 6.68%; in experiment [2] it was -0.159% and 6.64%; in experiment [3], -1.54% and 7.92%; in experiment [4], -11.5% and -8.02%; in experiment [5], -4.89% and -1.36%.
Turning to `C[C@@H]1C(=O)O[C@H](C)[C@H]1C[C@@H](O)[C@](C)(O)[C@H]1CC[C@@]2(O)C3=CC(=O)[C@@H]4C[C@@H](O)[C@@H](O)C[C@]4(C)C3CC[C@]12C` (stereo not given in full), the activity change, negative = inhibition in experiment [1] is 4.9%; in experiment [2], 1.9%; in experiment [3] it was 9.29%; in experiment [4] it was -7.74%; in experiment [5] it was 2.26%.
For `Cc1cccc(Nc2nc(-c3ccncc3)cs2)c1`, the activity change, negative = inhibition is -89.8% in experiment [1]; -85.6% in experiment [2]; -93.6% in experiment [3]; -86.8% in experiment [4]; -91.8% in experiment [5].
Regarding `CCCNC(=O)N1CCCC2(CCC(=O)N(Cc3cnc(C)cn3)C2)C1` (stereo not given), the activity change, negative = inhibition is -5.66% in experiment [1]; -6.12% in experiment [2]; -1.82% in experiment [3]; -9.12% in experiment [4]; -7.67% in experiment [5].
For `Cc1ccc(NS(=O)(=O)c2ccc3c(c2)[C@H]2C=CC[C@H]2[C@@H](c2ccccc2Cl)N3)cc1C`, the activity change, negative = inhibition in experiment [1] was -13.4%; in experiment [2], -2.82%; in experiment [3], -21.6%; in experiment [4], -18%; in experiment [5] it was -18.9%.
For `COc1nc(C)c(C(=O)NC2CC(c3cc(=O)[nH]c(C)n3)C2)s1` (stereo not given), the activity change, negative = inhibition in experiment [1] is -3.07%; in experiment [2], -6.59%; in experiment [3] it was 2.19%; in experiment [4], -1.61%; in experiment [5], -1.01%.
For `COCCc1noc(CNC(=O)C2COc3ccccc3C2)n1` (stereo not given), the activity change, negative = inhibition in experiment [1] was -3.5%; in experiment [2], -5.79%; in experiment [3], -1.25%; in experiment [4] it was -11.2%; in experiment [5] it was -5.49%.
The matching figures for `CC(c1cccs1)N(C)C(=O)c1ccccc1Cl` (stereo not given): -1.57%, -5.75%, -0.058%, -17.9% and -6.6%.
Consider `O=[N+]([O-])c1cc(Cl)ccc1S(=O)(=O)N1CCN(Cc2ccccc2)CC1`, for which the activity change, negative = inhibition in experiment [1] is 8.14%; in experiment [2], 2.75%; in experiment [3], 11.5%; in experiment [4], -12.4%; in experiment [5] it was -6.21%.
For the molecule `CC(=O)Nc1c2n(c3ccc(F)cc13)CC(C)(C(=O)NCCC(C)C)N(Cc1ccccc1C)C2=O` (stereo not given), the activity change, negative = inhibition in experiment [1] was -3.07%; in experiment [2], 0%; in experiment [3] it was -2.36%; in experiment [4], 3.66%; in experiment [5] it was -4.42%.
On to `Cc1cn2nc(C(=O)NC3CCCC3)cc2c(N2CCSCC2)n1`, for which the activity change, negative = inhibition is -4.82% in experiment [1]; -1.7% in experiment [2]; -4.32% in experiment [3]; -2.44% in experiment [4]; 2.61% in experiment [5].
